{
  "source": "PubChem BioAssay AID686970",
  "about": "(National Center for Advancing Translational Sciences (NCATS), 2013)",
  "note": "Among all 360,000 compounds or so, about 6,000 (1.7%) were called active. Inconclusive results, whose numbers are uncertain, are shown with a selection of clear calls. The call rests on the fitted dose curve; in most records, active means well fitted cell-killing curve with a large enough effect; inconclusive means small, poorly fitted or top-dose-only effect, or effect the other way; inactive means flat fitted curve, though single readings scatter. Potencies of inconclusive entries are left out as doubtful fits. Potency means the concentration at half of the fitted maximal effect; tags describe the fitted curve by direction and shape.",
  "data": [
    {"experiment": "qHTS for induction of synthetic lethality in tumor cells producing 2HG: qHTS for the HT-1080-NT fibrosarcoma cell line;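 further: NT is the 2HG producing partner of a matched IDH1 knockdown line; nearly all actives have a fitted effect of over 55% in size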;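 on activity, negative = less viability: 0% = DMSO-treated cells and -100% = media-only wells without cells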", "details": "HT-1080-NT fibrosarcoma viability, CellTiter-Glo ATP luminescence, 48 h; activity, negative = less viability: at 46.1 µM (top of the series) unless noted", "outline": "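Toxicity toward the 2HG-producing NT line was scored as %Activity, normalised to DMSO and no-cell wells, from CellTiter-Glo luminescence after 48 hours' treatment.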", "values": [
      {"smiles": "CCCNC(=O)C1(C)CCCN(C(=O)c2cccc(C(F)(F)F)c2)C1", "note": "(configuration not stated)", "Potency": "inconclusive [rising, single point]"},
      {"smiles": "O=C(CSc1nnc2ccccn12)NNC(=O)c1cccc(Cl)c1", "Potency": "inactive"},
      {"smiles": "CC(=O)c1ccc(NC(=O)COc2ccc3c(c2)OCO3)cc1", "Potency": "inactive"},
      {"smiles": "CN(C)C(=O)c1ccc(Nc2nc(-c3cccs3)nc3ccccc23)cc1", "Potency": "inconclusive [cytotoxic, single point]"},
      {"smiles": "COc1cccc(/C=N/NC(=O)CNC(=O)c2cccnc2)c1O", "Potency": "inconclusive [cytotoxic, single point]"},
      {"smiles": "CN(CC#CCC(c1ccccc1)c1ccccc1)C(C)(C)C", "Potency": "inconclusive [cytotoxic, single point]"},
      {"smiles": "C[C@H]1[C@H](C)CC[C@]2(C(=O)O)CC[C@]3(C)C(=CC[C@@H]4[C@@]5(C)CC[C@H](O)C(C)(C)[C@@H]5CC[C@]43C)[C@H]12", "Potency": "inconclusive [rising, single point]"},
      {"smiles": "COc1ccc(-c2nnc(NC(=O)c3ccc(S(=O)(=O)N4CCCc5ccccc54)cc3)o2)cc1", "Potency": "active: 11.2 µM"},
      {"smiles": "CC(=O)c1ccc(S(=O)(=O)N(CC(=O)NC2CC2)Cc2ccc(F)cc2)cc1", "Potency": "inactive"},
      {"smiles": "CC(C)Cc1[nH]c(=O)c(C#N)c2c1CCCC2", "Potency": "inconclusive [cytotoxic, single point]"},
      {"smiles": "CC(C)=CCCC(C)c1cc(C(=O)NCCc2ccc(O)cc2)c(N)s1", "note": "(configuration not stated)", "Potency": "inconclusive [cytotoxic, single point]"},
      {"smiles": "COc1ccc(/C=C/CN2CCCC(CCC(=O)NCc3ccc(F)c(F)c3)C2)cc1", "note": "(configuration not stated)", "Potency": "inconclusive [cytotoxic, single point]"},
      {"smiles": "COc1cc(NC(=O)c2ccccc2C)c(OC)cc1NC(=O)CN1CCOCC1", "activity, negative = less viability": "inconclusive: 32.2%"},
      {"smiles": "CCOC(=O)c1c(NC(=S)Nc2ccc(OC)cc2)sc2c1CCCCC2", "Potency": "inactive"},
      {"smiles": "Cc1[nH]c2ccc(-c3nnc(SCC(=O)c4ccccc4F)o3)cc2c1C", "Potency": "inactive"},
      {"smiles": "CCc1nnc(NC(=O)CSc2nc3cccnc3n2C2CCCCC2)s1", "Potency": "inconclusive [cytotoxic, partial curve]"},
      {"smiles": "Cc1cc(C)cc(NC(=S)NCC2CCN(C(C)c3ccccc3)C2)c1", "note": "(configuration not stated)", "Potency": "inconclusive [cytotoxic, single point]"},
      {"smiles": "COC(=O)c1ccccc1NC(=O)Cn1c(=O)n(Cc2ccccc2)c(=O)c2c(C)c(C)sc21", "Potency": "inactive"},
      {"smiles": "COc1ccc(NC(=O)c2c(Nc3ccccc3)sc(C(=O)c3ccc(F)cc3)c2N)cc1", "Potency": "inconclusive [cytotoxic, single point]"},
      {"smiles": "CCCCCC(=O)N1C[C@H](n2cc(-c3ccc(F)cc3)nn2)[C@@H](O)C[C@@H]1c1ccc(OC)cc1", "Potency": "inactive"},
      {"smiles": "Cc1c(Br)c(=O)oc2c(Br)c(O)c(O)cc12", "Potency": "inactive"},
      {"smiles": "Cc1ccc(NC(=O)Cn2nnc(C(=O)NCc3cccs3)c2N)cc1", "Potency": "inconclusive [cytotoxic, single point]"},
      {"smiles": "OC(c1ccccc1)(c1nc(-c2ccc(Cl)cc2)cs1)C(F)(F)F", "note": "(configuration not stated)", "Potency": "active: 16.4 µM"},
      {"smiles": "CC(=O)Nc1ccc(NC(=O)c2c(-c3ccccc3)noc2C)cn1", "Potency": "inactive"},
      {"smiles": "NC(=O)c1c(NC(=O)CN2CCN(S(=O)(=O)c3ccccc3)CC2)sc2c1CCC2", "Potency": "inconclusive [cytotoxic, single point]"},
      {"smiles": "Nc1c(C(=O)NCc2ccco2)c2nc3ccccc3nc2n1CCc1ccccc1", "Potency": "inconclusive [cytotoxic, single point]"},
      {"smiles": "N#CCC(=O)N/N=C/c1ccc(N2N=C(c3ccccc3)CC2c2ccccc2)cc1", "note": "(configuration not stated)", "Potency": "inconclusive [cytotoxic, single point]"},
      {"smiles": "COc1ccc(C[C@H]2CN3C(=NC[C@@H]3Cc3ccccc3)N2CCNC(=O)c2ccc(C)c(Br)c2)cc1", "Potency": "inconclusive [cytotoxic, single point]"},
      {"smiles": "C[C@H](C(=O)O)c1cccc(C(=O)c2ccccc2)c1", "Potency": "inconclusive [rising, single point]"},
      {"smiles": "N#C/C(=C/c1ccc(N2CCCCCC2)o1)c1cccc(F)c1", "Potency": "active: 11.2 µM"},
      {"smiles": "Cc1ccc(S(=O)(=O)Nc2ccc(-c3ccc4nncn4n3)cc2)cc1", "Potency": "inactive"},
      {"smiles": "Cc1ccc(CNC(=O)c2ccc(N3CCC4(CC3)CC(c3ccccc3)=NO4)c(NC(=O)c3ccc(Cl)c([N+](=O)[O-])c3)c2)cc1", "activity, negative = less viability": "inconclusive: 31%"},
      {"smiles": "COc1ccc2c(c1)c1ncn(CCN3CCCCC3)c(=O)c1n2C", "activity, negative = less viability": "inactive: 11.2% [at 9.24 µM]"},
      {"smiles": "CC(Sc1ccc(S(=O)(=O)N2CCCCCC2)cn1)C(N)=O", "note": "(configuration not stated)", "Potency": "inactive"},
      {"smiles": "CN(Cc1ccc(Cl)s1)C(=O)CCl", "Potency": "active: 20.6 µM"},
      {"smiles": "Cc1ccc2[nH]c(=O)c(CN(CCCN3CCOCC3)C(=O)Nc3cccc(Cl)c3)cc2c1", "Potency": "inconclusive [cytotoxic, partial curve]"},
      {"smiles": "COc1ccc(OCCn2cc(C=O)c3ccccc32)cc1", "Potency": "inactive"},
      {"smiles": "O=C(CSc1nc(O)cc(=O)[nH]1)N1CCOCC1", "Potency": "inconclusive [rising, partial curve]"},
      {"smiles": "CC1CC(C)(C)Nc2ccc(N=O)cc21", "note": "(configuration not stated)", "Potency": "active: 14.6 µM"},
      {"smiles": "O=C(c1ccc(F)cc1)C1CCN(CCn2c(=O)[nH]c3ccccc3c2=O)CC1", "Potency": "inconclusive [cytotoxic, single point]"},
      {"smiles": "Nc1ncn(C(=O)c2ccco2)n1", "Potency": "inactive"},
      {"smiles": "COCCCNC(=O)CCc1c(C)nc2c(c(C)nn2-c2ccc(C)cc2)c1C", "Potency": "inactive"},
      {"smiles": "Cn1c(/C=C(\\C#N)C(N)=S)ccc1-c1ccc(Br)cc1", "Potency": "inconclusive [cytotoxic, single point]"},
      {"smiles": "Cc1nc2ccccc2n1/N=C/c1ccc([N+](=O)[O-])s1", "Potency": "inconclusive [cytotoxic, full curve]"},
      {"smiles": "CCC(C)c1ccccc1N1CC(C(=O)Nc2cccc(S(=O)(=O)N3CCOCC3)c2)CC1=O", "note": "(configuration not stated)", "Potency": "inactive"},
      {"smiles": "O=C(CSc1nnc(CNC(=O)C23CC4CC(CC(C4)C2)C3)n1-c1ccccc1)Nc1ccccc1", "Potency": "inactive"},
      {"smiles": "CCCCNC(=O)C1(C)CCN1C(=O)c1cc(-c2cccs2)oc1C", "note": "(configuration not stated)", "Potency": "inconclusive [cytotoxic, single point]"},
      {"smiles": "Cc1ccc([N+](=O)[O-])cc1N(CC(=O)Nc1ccc(S(=O)(=O)Nc2cccc(C(F)(F)F)c2)cc1)S(C)(=O)=O", "Potency": "inconclusive [cytotoxic, single point]"},
      {"smiles": "CN(Cc1cn(-c2ccccc2)nc1-c1ccc2c(c1)OCO2)Cc1nccn1C", "Potency": "inactive"},
      {"smiles": "CN1CCN(Cc2nc3ccccc3c(=O)n2Cc2nc(-c3cccc([N+](=O)[O-])c3)cs2)CC1", "Potency": "active: 14.6 µM"},
      {"smiles": "NS(=O)(=O)c1ccc(N2N=C(c3ccc(Br)cc3)CC2c2ccc(F)cc2)cc1", "note": "(configuration not stated)", "Potency": "active: 6.51 µM"},
      {"smiles": "Cc1ccsc1C(=O)N1CC(=O)Nc2ccccc21", "Potency": "inconclusive [cytotoxic, single point]"},
      {"smiles": "CC1(C(=O)Nc2ccc3c(c2)OCCO3)CN(S(C)(=O)=O)CC(=O)N1CCCn1ccnc1", "note": "(configuration not stated)", "Potency": "inactive"},
      {"smiles": "COc1cc2c(cc1NC(=O)c1cccnc1)oc1ccccc12", "Potency": "inconclusive [cytotoxic, single point]"},
      {"smiles": "O=C(O)CCCCCCCCc1cn(Cc2ccc(C(=O)c3ccccc3)cc2)nn1", "Potency": "active: 3.66 µM"},
      {"smiles": "COc1ccc(NC(=S)Nc2ncccc2C)c(OC)c1", "Potency": "active: 7.08 µM"},
      {"smiles": "CCCn1cc(SCC(=O)Nc2cc(C)on2)c2ccccc21", "Potency": "inactive"},
      {"smiles": "NC(=S)N/N=C/c1ccc(-c2ccc(SC(F)F)cc2)o1", "Potency": "inconclusive [cytotoxic, full curve, poor fit]"},
      {"smiles": "Cc1ccc(S(=O)(=O)N2CCN(Cc3cccnc3)CC2)cc1", "Potency": "inactive"},
      {"smiles": "C[C@H](CO)N1C[C@H](C)[C@H](CN(C)Cc2ccc(Oc3ccccc3)cc2)Oc2cc(Br)ccc2S1(=O)=O", "Potency": "inconclusive [cytotoxic, single point]"},
      {"smiles": "CC(=O)Nc1ccc(S(=O)(=O)N2CCN(CCc3ccccc3)CC2)cc1", "Potency": "inactive"},
      {"smiles": "COc1cccc2c1OC1(C)CC2N(C(=O)c2ccco2)C(=S)N1c1ccc(F)cc1", "note": "(configuration not stated)", "Potency": "inconclusive [cytotoxic, single point]"},
      {"smiles": "Cc1ccc(S(=O)(=O)C=CS(=O)(=O)c2ccc(C)cc2)cc1", "Potency": "inconclusive [cytotoxic, single point]"},
      {"smiles": "COC(=O)C1=C(C)NC(=S)NC1c1ccc(-c2cc(Cl)ccc2Cl)o1", "note": "(configuration not stated)", "Potency": "inconclusive [cytotoxic, single point]"},
      {"smiles": "Cc1nc(NC(=O)c2cc3c(s2)CCCCC3)sc1C(=O)N(C)C", "Potency": "inconclusive [cytotoxic, single point]"},
      {"smiles": "Cc1ccc(S(=O)(=O)N/N=C/c2c(C)nn(-c3ccccc3)c2C)cc1", "Potency": "inactive"},
      {"smiles": "Nc1cc(Cl)ccc1C(=O)OCC(=O)N1CCOCC1", "Potency": "inconclusive [rising, partial curve]"},
      {"smiles": "CCCc1nc(NCc2ccccn2)c2nnn(Cc3ccccc3F)c2n1", "Potency": "inactive"},
      {"smiles": "COc1ccc(C(C(=O)NC2CCCCC2)N(C(=O)c2sc(C)nc2C)c2ccc(C(C)=O)cc2)cc1", "note": "(configuration not stated)", "Potency": "inconclusive [cytotoxic, single point]"},
      {"smiles": "NC(COCc1ccccc1)c1csc(NC(=O)Nc2cccc(C(F)(F)F)c2)n1", "note": "(configuration not stated)", "Potency": "inconclusive [cytotoxic, single point]"},
      {"smiles": "Cn1nc(-c2ccccc2)c(CSc2ccccc2Cl)c1Cl", "Potency": "inconclusive [cytotoxic, single point]"},
      {"smiles": "Cc1ccc(S(=O)(=O)Oc2ccc(C3C4=C(CCCC4=O)OC4=C3C(=O)CCC4)cc2)cc1", "Potency": "inactive"}
    ]}
  ]
}
